# Data taken from PubChem BioAssay AID686979 (National Center for Advancing Translational Sciences (NCATS), 2013).
# Screen size: about 420,000 compounds; about 50,000 (12%) were called active. Inconclusive results, whose numbers are uncertain, are shown with a selection of clear calls. The call rests on the fitted dose curve; in most records, active means well fitted inhibition curve with a large enough effect; inconclusive means small, poorly fitted or top-dose-only effect; inactive means flat fitted curve, though single readings scatter. No potency is given beside an inconclusive call; the fits are too rough.
# Assay: qHTS for Inhibitors of human tyrosyl-DNA phosphodiesterase 1 (TDP1): qHTS in cells in presence of CPT; further: nearly all actives have a fitted effect of over 55% in size
# Conditions: chicken DT40 Tdp1-/-;hTDP1 cells + 20 nM CPT, ATP luminescence, 48 h; activity change, negative = growth inhibition: at 46.2 µM (top of the series) unless noted
# Procedure, shortened: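 Chicken DT40 Tdp1-/- cells complemented with human TDP1, 400 cells/well, exposed to compounds plus 20 nM camptothecin for at least 48 h at 37 C; viability read as ATP content by CellTiter-Glo luminescence.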
# On the % scale 0 is the no-effect control and ±100 the full control effect; potency means the concentration at half of the fitted maximal effect; tags describe the fitted curve by direction and shape.
Structure (SMILES),Potency,"activity change, negative = growth inhibition"
O=C(NCC(c1ccc(F)cc1)N1CCOCC1)c1ccc([N+](=O)[O-])o1 (stereo not drawn),active: 20.6 µM,
CCOc1ccccc1NC(=O)CSc1nnc2ccc(-c3ccccn3)nn12,"inconclusive [inhibitor, single point]",
Cc1no[n+]([O-])c1COc1cccc(/C=N/Nc2nncn2N)c1,"inconclusive [inhibitor, single point]",
CCC(C)c1cc(S(=O)(=O)N2CCOCC2)ccc1OC (stereo not drawn),"inconclusive [inhibitor, single point]",
CC(C)c1nnc(N2C(=O)C(O)=C(C(=O)c3cccs3)C2c2ccccc2)s1 (stereo not drawn),inactive,
Cc1c(C(=O)NCCC2=CCCCC2)cccc1[N+](=O)[O-],,inconclusive: -31.8% [inhibitor]
Cc1ccc2c(c1)c1nc3ccccc3nc1n2CCN1CCOCC1,"inconclusive [inhibitor, single point]",
COc1ccc(-n2cc(CNCCN3CCOC3=O)c(-c3ccccc3Cl)n2)cc1,"inconclusive [inhibitor, full curve]",
C[C@@H]1CN([C@@H](C)CO)C(=O)c2cc(Br)cnc2O[C@H]1CN(C)C(=O)c1ccc2c(c1)OCO2,inactive,
N#CCCn1nc(-c2ccccc2)cc1Nc1ccccc1NC(=O)C(F)(F)F,inactive,
Cc1ccc(-n2c(-c3ccccc3)nsc2=NC#N)cc1,active: 12.6 µM,
O=C(Nc1ccc2ncccc2c1)Nc1ccc2ncccc2c1,active: 20.6 µM,
Cc1nc(NCc2ccco2)c2c3c(sc2n1)CCC3,active: 13 µM,
COc1ccc(-c2nc3c4ccccc4ccn3c2CN2CCOCC2)cc1OC,active: 14.6 µM,
COc1ccc(/C=N/OCC(=O)N2CC3(C)CC2CC(C)(C)C3)cc1 (stereo not drawn),inactive,
Cc1ccc(-c2nn(C)c(=O)c3ccccc23)cc1S(=O)(=O)N1CCCC1,active: 14.6 µM,
O=C(CNC(=O)/C(=C\c1ccc(F)cc1)NC(=O)c1ccccc1)OCc1ccccc1,"inconclusive [inhibitor, single point]",
COC(=O)C1=C(C)Nc2ncnn2C1c1ccco1 (stereo not drawn),inactive,
CC(C)C(C)NC(=O)CN1C(=O)NC(c2ccccc2)(c2ccccc2)C1=O (stereo not drawn),inactive,
CSc1ccc(C(O)c2ncc(-c3cccc(F)c3)[nH]2)cc1 (stereo not drawn),active: 14.6 µM,
CC(C)c1ccc(/C=C(/C#N)c2nnc(NC(=O)c3ccccc3)s2)cc1,inactive,
Cc1c(C(=O)NCCO)[n+](=O)c2ccccc2n1[O-],inactive,
O=C(COc1ccccc1)Nc1ccc(S(=O)(=O)NCc2ccco2)cc1,"inconclusive [inhibitor, single point]",
CCn1c(=O)c2cc(C(=O)N(C)c3cc(C)ccc3OC)sc2c2ccccc21,"inconclusive [inhibitor, single point]",
CSc1nc2ccccc2n1Cc1c(Cl)cccc1Cl,"inconclusive [inhibitor, single point]",

Structure (SMILES),Potency,"activity change, negative = growth inhibition"
CCCCCC(=O)N1C[C@H](O)[C@@H](n2cc(COC(=O)c3ccccc3)nn2)C[C@@H]1c1ccc(Cl)cc1,"inconclusive [inhibitor, single point]",
COc1ccccc1NC(=S)N1C2CCC1CC(NC(=O)NC13CC4CC(CC(C4)C1)C3)C2 (stereo not drawn),"inconclusive [inhibitor, partial curve]",
CSc1ccccc1NC(=O)c1noc2c1CCC2,"inconclusive [inhibitor, single point]",
CCc1nnc(NC(=O)CSc2nnc(Cc3ccccc3)o2)s1,"inconclusive [inhibitor, partial curve]",
CCOC(=O)c1c(NC(=O)c2ccco2)sc2c1CCCCC2,active: 29.1 µM,
CC(C)Cc1nc(N2CCN(C(=O)c3ccco3)CC2)c(C#N)c2c1CCC2,"inconclusive [inhibitor, single point]",
CCCN(CCC)C(=O)c1nn(C)c2c1CSc1ccc(C)cc1-2,"inconclusive [inhibitor, single point]",
O=C(Nc1ccc(Cl)c(Cl)c1)Nc1cc(S(=O)(=O)N2CCOCC2)ccc1N1CCCC1,"inconclusive [inhibitor, single point]",
CCN1CCN(C(=O)C2CCCN(S(=O)(=O)c3cc(Cl)ccc3Cl)C2)CC1 (stereo not drawn),inactive,
Cc1cc(OCCN2CCC(Cc3ccccc3)CC2)ccc1[N+](=O)[O-],"inconclusive [inhibitor, partial curve, poor fit]",
CCN(CC)S(=O)(=O)c1ccc2oc(C(=O)NCc3ccc(F)cc3)c(C)c2c1,active: 13 µM,
CCOC(=O)c1cc(-c2ccccc2)n(CCCC(=O)Nc2ccccc2C)c1C,"inconclusive [inhibitor, single point]",
CC1CC(C)CN(S(=O)(=O)c2ccc(C(=O)N3CCN(c4ccccc4)CC3)cc2)C1 (stereo not drawn),"inconclusive [inhibitor, single point]",
Cc1ccc(NC(=S)N2CCCC(c3nc4ccc(C)cc4[nH]3)C2)c(C)c1 (stereo not drawn),"inconclusive [inhibitor, partial curve]",
C/C=C/Cn1c(SCc2ccccc2)nc2c1c(=O)[nH]c(=O)n2C,active: 20.6 µM,
O=C(Nc1cccc(N2CCCC2)c1)c1cccs1,"inconclusive [inhibitor, partial curve, poor fit]",
Nc1nnc(CC(=O)N/N=C\c2ccc(-c3cccc(Cl)c3)o2)s1,inactive,
CCOC(=O)c1c(C)[nH]c(C)c1C(=O)COC(=O)/C=C/c1ccccc1[N+](=O)[O-],"inconclusive [inhibitor, single point]",
Cc1cc(C)n2nc(SCc3ccccc3)nc2n1,inactive,
CN1CCN(C2CC(=O)N(CCc3ccccc3)C2=O)CC1 (stereo not drawn),"inconclusive [inhibitor, single point]",
O=C(/C(=C\c1ccccc1)c1nc2ccccc2[nH]1)c1ccc(Cl)cc1,active: 7.31 µM,
O=C(CN1CCN(C(=O)c2cncn2-c2ccccc2)CC1)Nc1ccccc1Cl,inactive,
CCOC(=O)N1CCN(CC(=O)Nc2cc(OCC)ccc2OCC)CC1,"inconclusive [inhibitor, single point]",
O=C(Nc1ccc(-c2nc3ccccc3[nH]2)cc1)c1cccc(N2C(=O)CCC2=O)c1,"inconclusive [inhibitor, partial curve]",
CCCNC(=O)C1(C)CCCN(Cc2ccc(Oc3ccccc3)cc2)C1 (stereo not drawn),active: 20.6 µM,

Structure (SMILES),Potency,"activity change, negative = growth inhibition"
CN1CCN(C2CCN(S(=O)(=O)c3ccc(C(C)(C)C)cc3)CC2)CC1,"inconclusive [inhibitor, single point]",
CCC(C)NC(=O)C(NS(=O)(=O)c1cccc2nsnc12)c1ccccc1 (stereo not drawn),inactive,
Cc1nc(-c2ccc(S(=O)(=O)Nc3ccc(Cl)c(C(F)(F)F)c3)cc2)co1,"inconclusive [inhibitor, single point]",
COc1ccc(C(C)(C)C)cc1NC(=O)c1ccccc1-n1cnnn1,inactive,
COc1ccc([C@H]2CN(c3ccccc3)C(=O)[C@@H]2CC(=O)Nc2ccccc2)cc1,"inconclusive [inhibitor, single point]",
CCN(C(=O)COC(=O)CNC(=O)C12CC3CC(CC(C3)C1)C2)C1CCS(=O)(=O)C1 (stereo not drawn),inactive,
CCN(Cc1ccccc1)S(=O)(=O)c1ccc2c(c1)NC(=O)CS2,"inconclusive [inhibitor, single point]",
COc1ccccc1CN1CN(S(=O)(=O)c2ccccc2)c2nc3ccccc3nc21,active: 14.6 µM,
COc1ccc(CNC(=O)c2sc3nc4n(c(=O)c3c2C)CCCCC4)cc1,"inconclusive [inhibitor, single point]",
COc1ccc(C(CNC(=O)C(C)(C)Oc2ccc(Cl)cc2)N2CCCC2)cc1 (stereo not drawn),"inconclusive [inhibitor, single point]",
O=C(Nc1cccc(-n2cccn2)c1)C1CCCN(Cc2ccccc2F)C1 (stereo not drawn),active: 20.6 µM,
CCOC(=O)c1cnc2ccc(C)cc2c1Sc1ccccc1,"inconclusive [inhibitor, partial curve]",
O=C(/C=C/c1ccccc1Cl)OCC(=O)c1ccc[nH]1,inactive,
COc1ccc(C(=O)C(=O)N2CCC(Cc3ccccc3)CC2)cc1OC,"inconclusive [inhibitor, partial curve]",
CCOc1ccccc1CNC(=O)c1cnc2sc(N(CC)CC)nn2c1=O,"inconclusive [inhibitor, single point]",
COC(=O)C(N)CS (stereo not drawn),inactive,
CCN1CCSc2ccc(C(=O)NCc3ccccc3C)cc21,"inconclusive [inhibitor, single point]",
CC(C)C(=O)NC(=S)N(Cc1ccccc1)Cc1ccccc1,"inconclusive [inhibitor, single point]",
COc1ccc(S(=O)(=O)N2CCN(Cc3cccc([N+](=O)[O-])c3)CC2)cc1,inactive,
Cc1ccc(NC(=O)c2cccc(S(=O)(=O)N3CCN(c4ccccc4)CC3)c2)nc1,active: 20.6 µM,
CN1CCN(S(=O)(=O)c2ccc(NC(=S)NC(=O)C3CCCC3)cc2)CC1,inactive,
COc1ccc(CNC(=O)C(CC(C)C)N2Cc3ccccc3C2=O)cc1 (stereo not drawn),"inconclusive [inhibitor, partial curve]",
CCN(CC)CCOC(=O)c1ccc(Nc2c3c(nc4ccccc24)CCC3)cc1,"inconclusive [inhibitor, single point]",
